± gives the standard deviation of the averaged measurements. This is one part of the list.

For this assay, the system named is PfAP2-LT AP2 domain (GST-tagged). The assay can be described thus: gcPBM binding intensity (ln(normalized median fluorescence intensity)); higher = stronger DNA binding. In short, it runs like this:
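GST-tagged P. falciparum DNA-binding domains, expressed in E. coli (about 25 μg on average), were applied for 1 h to an Agilent 4 × 180k array of primer-extended double-stranded 36-bp intergenic genomic probes plus negative controls. The binding buffer was 1× PBS with 1% milk, 0.2 mg/ml BSA, 0.5% salmon testes DNA and 0.03% Triton X-100. Bound protein was detected with Alexa488 anti-GST antibody and scanned at 488 nm. Binding intensity is the highest Masliner-normalised natural-log median intensity across replicate spots of either probe orientation.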
“TATTTATAAAAATATACACACATACAAATATGCATA [CACACA_site4555]”: the “gcPBM binding intensity (ln)” value turned out to be 8.84 ± 0.33.
For “TATAAGTTGATATATACACACATATATAAATATGTA [CACACA_site7526]”, the “gcPBM binding intensity (ln)” value worked out at 8.87 ± 0.37.
Under “ATGGTTTTCAGAAAAACATGCATACAATAATAAAAA [TGCATGCA_site815]” stands 8.68 ± 0.52; under “TTTAAAATAACCAAAAACAAAAAGAAACACAAATGT [GTGCAC_negctrl_site705]”, 8.76 ± 0.42.
As for TTTCAAATGGAATGTGTGCACATAAATGTAAATAAA, the figure is 9.18 ± 0.38.
As for “GATCAAATAGAAAATACATGCAATGTGTGAAATAAC [TGCATGCA_site835]”, the figure is 9.22 ± 0.5; as for “AAAAAAAAAATTTACTGTACACATTTGGGATACTCA [XGTACX_site5191]”, 8.61 ± 0.45.
“TTCATTAAAATTATTACACACAGTTCTTCAACCAAA [CACACA_site3504]”: the “gcPBM binding intensity (ln)” value is 8.73 ± 0.4.
Under “ATATGTAGTTTTTATTGTACGTGTAGAAGAAATAAT [XGTACX_site6608]” stands 8.8 ± 0.53; under “TTTTAAACAGGACACACACACATATAGATTTATATA [CACACA_site6560]”, 9.52 ± 0.28.
Regarding “AAACTTTTTTTAAAAACACACATATAGATTTATATA [CACACA_site7842]”, the “gcPBM binding intensity (ln)” value is 8.61 ± 0.43.
As to “TAGTTTTTTATATATTGTACAAATGATATATTATAT [XGTACX_site1002]”, the “gcPBM binding intensity (ln)” value was determined as 8.66 ± 0.4.
As for “TATTTTTAAACAAAACTGTATTTATTTTTTAAAATT [CACACA_negctrl_site1449]”, the figure is 8.16 ± 0.47.
As for TTTTGTTATTTTTGTATGCACTACATATTATTATAT, the figure is 9.19 ± 0.54; as for “ATATATATATATAATTGTACATTTTTATGTTTTATA [XGTACX_site4560]”, 9.1 ± 0.33; as for “GAAATTAAAAAATTTATGCACACTTTAAAAAAAAAA [CACACA_site3769]”, 8.47 ± 0.38.
Under “ATGAAAAAAAATAAAAAATATATATATATATATATA [CACACA_negctrl_site236]” stands 9.4 ± 0.4; under “TATATTTTAATTTGAAGTACTAATATTTATTTATAT [XGTACX_site7458]”, 8.34 ± 0.42; under “TATAACCATATATACACACACATATAAATATAAATA [CACACA_site7089]”, 9.46 ± 0.31.
Regarding “AAGGTGGAAACAATTACACACACACTAAAAAAAAAA [CACACA_site7493]”, the “gcPBM binding intensity (ln)” value is 9.57 ± 0.45.
As for ATATATATATATTTCGTGCACTGATAATATTATTTT, the figure is 9.18 ± 0.37; as for “AAAAAGAGGAAAAAGATAAAGAAATTAAAGGAGAGA [CACACA_negctrl_site423]”, 8.73 ± 0.62; as for “TTTAATCATTTTATTTGTACTCATAAAAAATATAAT [XGTACX_site5537]”, 8.3 ± 0.5.
Under “AAAAAATATAAAAAAAGTACACAAAAACTACAAAAA [XGTACX_site2677]” stands 8.91 ± 0.51.
As for “TAATTTCCTTAAGAATGTACTTACATTTTATTATTT [XGTACX_site5998]”, the figure is 8.56 ± 0.56.

The record behind these values is the supplement of paper PMC11417369.
